This note sets out measurements from PMC12040169 (PLOS Biology, 2025).

Some of the results follow.

For this assay, the system named is T1, C. trachomatis L2/434/Bu expressing GFP (CTL2-GFP).
T1 construct: L2/434/Bu GFP intracellular growth in HeLa cells
Details: species or system HeLa; C. trachomatis total inclusion area by high-content imaging, normalised to DMSO. The note with it: total inclusion area; 28.5 h, 10 µM; inhibitor. Put shortly: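 High-content imaging followed the bulk GFP/resorufin measurement: fixed, Hoechst-stained cells were scored for GFP inclusions and host nuclei per well. Total inclusion area and count served as growth proxies, nuclei number as the viability proxy. MIC calculation matched the bulk assay.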
Consider `CCN(CC)C(=O)CN(CCc1ccc(OC)c(OC)c1)C(=O)NCc1ccc(Cl)cc1` [CBK158742], for which the “% of control remaining” value is listed as 66.9746.

For `CCOC(=O)c1cnn2c(O)cc(CN3CCCC3c3ccsc3)nc12` (stereo not shown) [CBK305647], the “% of control remaining” value is listed as 99.9921.

As for `CN(C)S(=O)(=O)c1ccc(NC(=O)c2ccc(-c3ccccc3)cc2)cc1` [CBK267322], the “% of control remaining” value turned out to be 105.182.

On to `Nc1cccc(-c2nccnc2NCc2cccnc2)c1` [CBK089310], for which the “% of control remaining” value turned out to be 71.2751.

With `Cc1nc(C2CCN(C(=O)c3cscn3)CC2)c2sccn12` [CBK285240], the “% of control remaining” value is recorded as 68.6804.

For the compound `CC(C)COc1ccc(-c2nonc2NC(=O)c2ccccc2F)cc1` [CBK299831], the “% of control remaining” value worked out at 80.6476.

With `COCCc1noc(C(C)NC(=O)Cc2cccc(O)c2)n1` (stereo not shown) [CBK307493], the “% of control remaining” value amounted to 60.225.

Consider `NC(=O)c1c(NC(=S)NC(=O)c2ccccc2Br)sc2c1CCC2` [CBK265543], for which the “% of control remaining” value is 101.527.

As for `COC(=O)C(O)(CC(=O)Nc1ccc(C)c(F)c1)C(F)(F)F` (stereo not shown) [CBK267440], the “% of control remaining” value came out at 93.1585.

As to `O=C(O)CN1C(=O)/C(=C/C2=Cc3ccccc3OC2)SC1=S` [CBK264787], the “% of control remaining” value came to 114.266.

With `Cc1cc(OCC(=O)Nc2ccc(S(=O)(=O)N3CCOCC3)cc2)ccc1[N+](=O)[O-]` [CBK268114], the “% of control remaining” value was 116.963.

As to `O=c1cc(N2CCOCC2)cnn1CCCCOc1ccccc1` [CBK307327], the “% of control remaining” value came out at 12.8211.

`Cc1ccc(-n2c(=O)[nH]c3c(C(N)=O)nc(-c4ccccc4)nc32)cc1C` [CBK287718]: the “% of control remaining” value is reported as 51.0671.

Take `CN1CCN(CC(=O)N/N=C/C2CC=CCC2)CC1` (stereo not shown) [CBK019340]: the “% of control remaining” value amounted to 87.0285.

For the compound `CC1CCc2c(sc(NC(=S)NC(=O)c3ccc4c(c3)OCCO4)c2C(N)=O)C1` (stereo not shown) [CBK266370], the “% of control remaining” value is recorded as 134.326.

In the case of `CCOC(=O)c1c(CN2CCCC2)nc2c3ccccc3ccn12` [CBK267521C], the “% of control remaining” value was 90.1995.

On to `O=C(Nc1nc2c(F)cc(F)cc2s1)c1ccc(F)cc1` [CBK287617], for which the “% of control remaining” value worked out at 95.588.

`CCOC(=O)c1[nH]c2ccccc2c1NS(=O)(=O)c1ccc(NC(C)=O)cc1` [CBK047411]: the “% of control remaining” value is on record as 86.5421.

As to `COC(=O)C(C)(C)C1c2cc(Br)ccc2OC(=O)C1C(=O)c1ccccc1` (stereo not shown) [CBK266690], the “% of control remaining” value is reported as 110.061.

Regarding `CC(=O)c1ccc(NC(=O)C(C)SCc2ccc(C)cc2)cc1` (stereo not shown) [CBK296616], the “% of control remaining” value is given as 53.9364.

For the compound `O=C(Cc1ccc(F)cc1)N1CCC(c2cc3cnccc3[nH]2)CC1` [CBK283454], the “% of control remaining” value is reported as 88.4193.

Consider `C#CCN(C)CC[C@@H]1CC[C@H](O)[C@@H](C(=O)NC(C)C)O1` [CBK288718], for which the “% of control remaining” value worked out at 90.848.

`CCn1cc(CN2CCN(C(=O)C3C4CCCCC43)CC2)c(C)n1` (stereo not shown) [CBK281545]: the “% of control remaining” value is recorded as 88.9931.

`COc1ccccc1Cc1cccc(C2CCCN2C(=O)c2ccc(F)cc2)n1` (stereo not shown) [CBK286239]: the “% of control remaining” value is recorded as 101.307.

As for `O=C(NCc1ccc(Cl)cc1)N1CCCC(CO)C1` (stereo not shown) [CBK156053], the “% of control remaining” value is recorded as 101.927.

As to `COCCCN(Cc1ccccn1)Cc1cc(F)ccc1F` [CBK282950], the “% of control remaining” value is 75.6099.

Regarding `CCS(=O)(=O)N1CCC(C(=O)NC2CC(C)(C)Oc3ccccc32)CC1` (stereo not shown) [CBK304364], the “% of control remaining” value amounted to 112.515.

Consider `CCOc1ccc(N2C(=O)CC(N3CCN(CCc4ccncc4)CC3)C2=O)cc1` (stereo not shown) [CBK269930], for which the “% of control remaining” value stood at 128.496.

In the case of `Cc1cc(C)c(S(=O)(=O)N(CC(=O)O)C2CCCCC2)c(C)c1` [CBK266663], the “% of control remaining” value was 109.806.

In the case of `CCCc1cc(O)nc(SC(C)C(=O)N2CCOCC2)n1` (stereo not shown) [CBK305030], the “% of control remaining” value is reported as 75.1952.

Turning to `N#C/C(=C\c1ccccc1O)C(=O)Nc1sc2c(c1C(N)=O)CCCC2` [CBK263644], the “% of control remaining” value is reported as 80.5631.

As to `CCC(O)Cn1nc(CCSC)nc1-c1ccc2[nH]ccc2c1` (stereo not shown) [CBK307526], the “% of control remaining” value was determined as 75.1121.

On to `O=C(Nc1ccc(F)cc1F)Nc1cc(Cl)sc1Cl` [CBK019967], for which the “% of control remaining” value was 72.2486.

As for `N=C(SC1CC(=O)N(c2ccc(C(=O)O)cc2)C1=O)N1N=C(c2ccccc2)CC1c1ccccc1` (stereo not shown) [CBK262446], the “% of control remaining” value is reported as 105.174.

Take `CC(C)(C)c1cc(NC(=O)c2csc3c(C(F)(F)F)cc(N4CCN(Cc5ccccc5)CC4)nc23)no1` [CBK028962]: the “% of control remaining” value is 57.9316.

On to `CC1(C)CC(=O)C=C(C(=O)NCc2ccc3c(c2)OCO3)O1` [CBK153290], for which the “% of control remaining” value stood at 115.368.

With `O=C(O)C1CC=C(Cl)CC1C(=O)Nc1ccc(Cl)cc1[N+](=O)[O-]` (stereo not shown) [CBK265612], the “% of control remaining” value is listed as 101.857.

`CCc1cc(C(=O)OC)c(NC(=O)CC2Nc3cccc4cccc(c34)NC2=O)s1` (stereo not shown) [CBK267563]: the “% of control remaining” value was 88.3699.

With `COc1ccccc1-c1noc(CN2CCCC(C(F)(F)F)C2)n1` (stereo not shown) [CBK305598], the “% of control remaining” value came to 75.9605.

As to `CCOc1ccc(NC(=O)C(=O)NC2CCCCC2)cc1` [CBK261822], the “% of control remaining” value was found to be 101.935.
